# From paper PMC6919601, “Identification of Plasmodium dipeptidyl aminopeptidase allosteric inhibitors by high throughput screening” (PLoS ONE, 2019)
# “And” between values parts separate entries of the source, which are not always exact repeats. Equal entries are not always repeated. Among all 110,000 compounds or so, about 230 (0.21%) showed an effect of 50% or more. This is one part of the list.
# Biological target: DPAP1 (Plasmodium falciparum, UniProt Q8IIJ9)
# Assay: primary screen, percent inhibition; read by cleavage of a fluorogenic dipeptide substrate; higher = more effect of the substance
# Parameters: species or system P. falciparum D10 trophozoite lysates; single well
# 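Further: 30 min substrate incubation versus DMSO and 10 µM JCP410 controls.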
# DPAP1, sequence (Q8IIJ9 whole entry, looked up): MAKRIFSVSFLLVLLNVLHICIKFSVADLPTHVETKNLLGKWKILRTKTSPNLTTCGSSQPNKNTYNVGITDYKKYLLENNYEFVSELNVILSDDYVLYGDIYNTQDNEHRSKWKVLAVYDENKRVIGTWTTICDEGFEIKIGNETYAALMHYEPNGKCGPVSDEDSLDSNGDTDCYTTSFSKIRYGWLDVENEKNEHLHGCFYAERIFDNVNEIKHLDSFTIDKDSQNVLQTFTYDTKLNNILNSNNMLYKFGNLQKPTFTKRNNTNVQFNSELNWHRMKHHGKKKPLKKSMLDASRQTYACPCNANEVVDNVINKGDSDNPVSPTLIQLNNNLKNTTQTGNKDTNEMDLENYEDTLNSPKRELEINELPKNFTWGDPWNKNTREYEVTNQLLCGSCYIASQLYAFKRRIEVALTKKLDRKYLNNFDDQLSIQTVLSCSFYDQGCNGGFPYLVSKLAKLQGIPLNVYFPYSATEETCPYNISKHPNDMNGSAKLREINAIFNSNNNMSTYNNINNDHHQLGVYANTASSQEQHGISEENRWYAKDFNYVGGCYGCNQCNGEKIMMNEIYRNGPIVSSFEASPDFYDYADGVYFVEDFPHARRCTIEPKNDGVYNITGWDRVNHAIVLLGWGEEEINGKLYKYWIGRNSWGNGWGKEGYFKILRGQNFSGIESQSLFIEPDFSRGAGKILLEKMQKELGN
row,Compound,% Inhibition @ 10 uM
1,Cc1ccc2c(c1)C1CN(C)CCC1N2C(=O)c1ccc(Cn2cc(Br)cn2)o1 (stereo not drawn),3.53%
2,CCOC(=O)N1CCN(C(=O)c2cc(-c3ccc(OC)cc3)[nH]n2)CC1,-3.53%
3,CC(C)CCNC(=O)C1CC(=O)N(CCc2ccccc2)C1 (stereo not drawn),1.62%
4,Brc1ccc(CSc2n[nH]c3nc4ccccc4n23)cc1,1.23%
5,CC1CCCCN1C(=O)c1cc(-c2ccc3c(c2)OCO3)on1 (stereo not drawn),-4.43%
6,Cc1ccc(C2=NS(=O)(=O)N(C)C(C(=O)Nc3sc4c(c3C#N)CCC4)=C2)cc1,0.655%
7,COc1ccccc1/C=C/C(=O)NCC(=O)N1CCC(N(C)C2CCCCC2C)CC1 (stereo not drawn),-2.85%
8,O=C1c2ccccc2-c2nc3cc4[nH]c(O)nc4cc3nc21,-6.3%
9,Cc1ccnc(NC(=O)CCC2COc3ccccc3O2)c1 (stereo not drawn),-1.72%
10,CC(C)(CO)NCc1ccccc1OCc1ccccc1,0.361%
11,CC12C(=O)N(c3cccc(Cl)c3)C(=O)C1C1C=CC2C1 (stereo not drawn),-9.25%
12,CCN(CC)CCNS(=O)(=O)c1ccc2ncc(C(=O)O)c(O)c2c1,-0.601%
13,COc1ccccc1Nc1cc(C)nc2c(C)c(C)cc(N)c12,-16.1%
14,CC1=C(C(=O)NCCCOC(C)C)C2(CCC(C)CC2)OC1=O (stereo not drawn),-3.7%
15,CC(=O)Nc1ccc(Nc2nc(-c3sc(C)nc3C)cs2)cc1,-10.3%
16,CCC(C)NC(=O)Cn1c(-c2cccs2)cc2ccccc21 (stereo not drawn),10.5%
17,Brc1ccc(-c2cc(-c3ccccc3)nc(N3CCOCC3)n2)cc1,4.42%
18,Cc1c(C(=O)NCCc2c[nH]c3ccccc23)sc2nc3n(c(=O)c12)CCCCC3,0.372%
19,CC(C)NC(=O)C1CCN(C(=O)c2ccc(-c3ccccc3)cc2)CC1,-3.78%
20,CN(C)CCC/N=C1\C=C(O)OC12CCCCC2,-4.93%
21,COCCn1c2c(c(=O)[nH]c1=O)C(c1cccc(Cl)c1Cl)C1=C(O)c3ccccc3C1=N2 (stereo not drawn),17.8%
22,CCOc1c(N2CCCCC2)c(=O)c1=O,-2.17%
23,COc1ccc2nc(O)c(-c3noc(-c4ccccc4Br)n3)cc2c1,-7.33%
24,O=C(NCc1ccncc1)Nc1cccc(Cl)c1,-2.76%
25,CC(C)(C)c1[nH]nc2c1C(c1ccco1)C(C#N)=C(N)O2 (stereo not drawn),-2.46%
26,CC(C)NC(=O)C(C#N)=C(SCc1ccccc1)SCc1ccccc1,0.0592%

row,Compound,% Inhibition @ 10 uM
1,CCN(CC)CCCOc1cc(Cl)ccc1Cl,-4.8%
2,O=C(Nc1ccc2oc(-c3cccc(F)c3)nc2c1)c1cccs1,1.8%
3,NC(=O)C1(N2CCCCC2)CCN(C(=O)NC2CCCCC2)CC1,-2.28%
4,O=S(=O)(Nc1nc2c(Cl)cccc2s1)c1ccccc1,-0.446%
5,CC1(C)CC2=Nc3ccccc3N(C(=O)Cc3ccccc3)C(c3ccc(F)cc3)C2=C(O)C1 (stereo not drawn),3.61%
6,O=C(C1CC1)N1CCN(C(c2ccccc2)c2ccccc2)CC1,-5.59%
7,Cc1ccc(Cn2ccn(CC(N)=O)c(=O)c2=O)cc1,0.943%
8,Cc1ccc(C(=O)O/N=C(\N)c2ccncc2)cc1,2.17%
9,O=C1N/C(=C/c2ccc(O)cc2)C(=O)N1c1ccc(Cl)cc1,-17.7%
10,CCOc1cc(C=O)ccc1OCc1c(F)cccc1Cl,4.86%
11,CCCN(CCO)Cc1ccccc1F,-2.34%
12,CC(=O)NS(=O)(=O)c1cccnc1Nc1ccc(Cl)c(Cl)c1,0.245%
13,CC1(C)CC(=O)C2=C(C1)NC(=O)CC2c1cccc2ccccc12 (stereo not drawn),-1%
14,Cc1ccc(CNC(=O)CN2CC(c3ccccc3)CC2=O)cc1 (stereo not drawn),5.1%
15,COCCCNC(=O)Cn1ncn2c(cc3sccc32)c1=O,4.95%
16,CC(=O)c1cc2c(cc1NC(=O)CC(C)C)OCO2,0.907%
17,C=Cc1ccc(CSc2nc3cccnc3[nH]2)cc1,0.174%
18,O=S(=O)(Nc1nc2ccccc2nc1NCc1ccccc1)c1ccccc1,-1.45%
19,CO/N=C/c1ccc(OCc2c(C)c(C)c(Br)c(C)c2C)c(OC)c1,-2.42%
20,Cc1ccc(Cc2c(O)n3c(nc2=O)SCCC3)cc1,-2.19%
21,CCOc1ccccc1NC(=O)C1C(C(=O)O)C2C=CC1C21CC1 (stereo not drawn),6.74%
22,Cc1ccc(N(CC(=O)N2CCCC2)S(C)(=O)=O)cc1Cl,-4.72%
23,O=c1/c(=C/c2cccc(C(F)(F)F)c2)sc2nc3ccccc3n12,-2.54% and -0.357%
24,Cn1ccnc1C(O)c1cccc2ccccc12 (stereo not drawn),-0.436%
25,Cc1cc(C)c(C)c(OCC(=O)N2CCN(c3ccccc3F)CC2)c1,-3.77%
26,CC1=C(C(=O)Nc2ccc(F)cc2F)C(c2ccc3c(c2)OCO3)C2=C(O)CC(C)(C)CC2=N1 (stereo not drawn),0.121%

row,Compound,% Inhibition @ 10 uM
1,O=C(Nc1cc(C(F)(F)F)ccc1Cl)[C@@H]1C2C=CC(C2)[C@@H]1C(=O)O (stereo partly drawn),-0.902%
2,COCC(=O)n1nc(-c2ccccc2)nc1NCc1ccco1,0.628%
3,Cc1ccc(Cn2cc(/C=C3\SC(=O)N(C)C3=O)c3ccccc32)cc1,0.484%
4,O=C(O)C1CSC(c2cccc(Br)c2)N1 (stereo not drawn),2.47%
5,CN1C(=O)CC(C(=O)Nc2ccccc2F)S/C1=N\c1ccc(Cl)cc1 (stereo not drawn),-1.02%
6,CN(CC(=O)NCc1ccc(C(=O)O)cc1)S(=O)(=O)c1cccc2nsnc12,2%
7,O=C1c2ccccc2N(Cc2ccc(Cl)cc2)C2=NCCN12,1.72%
8,COc1ccccc1C1CC(=O)NC(C)=C1C(=O)OCC1CCCO1 (stereo not drawn),4.78%
9,O=S(=O)(Cc1ccc(F)cc1)N1CCC(c2nc(O)c3nnn(Cc4ccccc4)c3n2)CC1,6.85%
10,CCC1=C(c2ccc(C)cc2)S(=O)(=O)N=C1N1CCC(C(=O)N2CCC3(CC2)OCCO3)CC1,-3.41%
11,CCOCCCNC(=O)C1=C(C)C(=O)OC12CCCCC2,1.55%
12,CC(CCc1ccccc1)N1CCN(c2ccccc2F)CC1 (stereo not drawn),-4.14%
13,CCN(CC)S(=O)(=O)c1nnc(NC(=O)COc2ccc(F)cc2)s1,-5.37%
14,COc1ccc(S(=O)(=O)N(CC(=O)N2CCN(c3ccccc3F)CC2)Cc2ccccc2)cc1,1.27%
15,Cc1ccc(C23CC4CC(CC(C(=O)NCC(=O)O)(C4)C2)C3)cc1,-3.06%
16,COc1cc(C(=O)O)c(-n2c(C)ccc2C)cc1OC,2.94%
17,Cc1ccc(S(=O)Cc2ccc(C(=O)NCCc3cccs3)o2)cc1 (stereo not drawn),-6.36%
18,C=CCn1c(SCCCCCC)nc(O)cc1=O,-1.62%
19,CCOC(=O)C1CCCN(C/C=C/c2ccccc2)C1 (stereo not drawn),-0.262%
20,CC(C)(C)c1ccc(C(=O)NCc2nc(-c3ccc(Cl)cc3)no2)cc1,6.78%
21,Oc1cc(-c2ccccc2)nc2nc3ccccc3n12,-7.15%
22,CC1=Nc2ncnn2C(c2ccccn2)/C1=C(\O)OC(C)C (stereo not drawn),0.565%
23,Cc1ccc(C(=O)O)cc1-c1ccc(/C=C2/NC(=O)NC2=O)o1,3.15%
24,Cc1ccccc1Cn1c(CN2CCC(C)CC2)nc2c1c(=O)n(C)c(=O)n2C,-0.499%
25,CC(O)(c1ccc(F)cc1)C(c1ccccc1)N1CCOCC1 (stereo not drawn),-1.96%
26,O=C(Cn1ccc2ccccc2c1=O)NCCC(=O)N1CCC(N2CCCCC2)CC1,-2.4%

row,Compound,% Inhibition @ 10 uM
1,COc1ccc(S(=O)(=O)c2nnn3c2nc(O)c2ccccc23)cc1,2.33%
2,CC(C(=O)NCc1ccc(F)cc1)n1ncn2cccc2c1=O (stereo not drawn),-5.97%
3,Cc1ccc(C2CC(=O)NC(SCC(N)=O)=C2C#N)o1 (stereo not drawn),-1.64%
4,COc1ccc2c(O)c(-c3c(C)cc(C)cc3C)c(O)nc2c1,-5.92%
5,Cc1nc2ccccc2c2oc(C(=O)NC3CCN(Cc4ccccc4)CC3)cc12,-5.25%
6,CC(C)CN(CCNS(=O)(=O)c1csc(C(N)=O)c1)CC(C)C,-5.31%
7,CC(=O)N1CCc2c([nH]c3ccccc23)C1c1cccc(F)c1 (stereo not drawn),-3.8%
8,CC1=C(C(=O)OCc2ccccc2)C(c2ccccc2C(F)(F)F)CC(=O)N1 (stereo not drawn),1.37%
9,Cc1nn(CC(=O)NCc2ccc3c(c2)OCO3)c(C)c1Cl,-2.79%
10,Clc1ccccc1CN1CCN(c2ccccc2Cl)CC1,-3.56%
11,O=[N+]([O-])c1cccc(C2=NOc3cc(Cl)ccc3N2)c1,-2.63%
12,COc1cc(OC)c(C2C3=C(O)CCCC3=Nc3nc4ccccc4n32)cc1OC (stereo not drawn),3.32%
13,CCOC(=O)C1CCN(C2CCN(CC)CC2)CC1,0.162%
14,CCOc1ccc(CC(=O)Nc2ccc(C)c(C)c2)cc1OCC,-2.28%
15,Cc1ccccc1Cn1cc(CCC(=O)N2CCOCC2)c2ccccc21,-3.15%
16,CN1CCOC(c2ccccc2)(C(O)(c2ccccc2)c2ccccc2)C1=O (stereo not drawn),-5.1%
17,Cc1ccc(C(=O)N(Cc2ccccc2)C(C)C)cc1[N+](=O)[O-],-5.32%
18,CCCOc1ccc(C2c3c(oc4ccccc4c3=O)C(=O)N2c2nccs2)cc1 (stereo not drawn),-6.23%
19,Cc1cc(C)c(NC(=O)Cn2cnc3ccccc3c2=O)c(C)c1,-1.28%
20,Clc1ccc(OCCCCCCN2CCCC2)c(Cl)c1,1.43%
21,COC(=O)c1cc2sc(Cl)cc2[nH]1,-3.34%
22,O=C(Nc1sc2c(c1C(=O)Nc1ccccc1)CCC2)c1ccccc1,-1.96%
23,CC1(C)CC(=O)c2cc(C#N)c(SCc3ccccc3)nc2C1,-4.93%
24,Cc1ccc(CNC(=O)c2cc3c(-c4ccccc4F)nn(C)c3s2)cc1,0.317%
